42 compounds from ChEMBL document CHEMBL4888484, “Replenishing the malaria drug discovery pipeline: Screening and hit evaluation of the MMV Hit Generation Library 1 (HGL1) against asexual blood stage Plasmodium falciparum ,using a nano luciferase reporter read-out” (2022) can be followed below.

Structures are written as SMILES. Screen size: about 150,000 compounds; about 540 (0.36%) showed an effect of 50% or more. The list shows a part of the results.

In this assay the test system is Plasmodium falciparum. Nature of the assay: Primary screen in NF54 nanoGlo assay, in single point, at 2uM, 72h; a lower Z score goes with more inhibition. It is filed as functional, Erythrocyte. The following applies: timepoint 72 hour.
What is called % Inhibition is the drop in the measured response relative to a control, in per cent. Take `COc1cc2c(cc1-c1nccn1CCc1nc3ccccc3[nH]1)OCO2`: the “% Inhibition” value is on record as 3% and the Z score is given as -0.32.
With `Cc1c(Cl)cnn1Cc1nnc(-c2ccc(Cl)cc2)o1`, the “% Inhibition” value came to 3% and the Z score is -0.43.
`Clc1cccc(COc2ccccc2CNc2nc[nH]n2)c1`: the “% Inhibition” value turned out to be 38% and the Z score is -4.29.
The corresponding values for `CC(C)Oc1ccc(Br)cc1N` are -16% and 2.15.
The matching figures for `CCCc1cncnc1N[C@H]1C[C@@H](c2cc(N3CCOCC3)ncn2)C1`: -17% and 1.94.
The corresponding values for `Cn1nnnc1Cn1ccc(C(F)(F)F)cc1=O` are -10% and 1.32.
On to `Cc1n[nH]c(C)c1S(=O)(=O)Nc1ccc(-c2ccccc2)cc1`, for which the “% Inhibition” value was -4% and the Z score amounted to 0.55.
Regarding `C[C@@]1(C(=O)NC2CCCCCC2)CN(S(=O)(=O)c2ccccc2)CC(=O)N1c1ccccc1F`, the “% Inhibition” value is reported as -2% and the Z score is listed as 0.31.
As for `COc1ccc(CN2CC[C@H](c3nnc(-c4ccccc4OC)o3)C2)cc1`, the “% Inhibition” value turned out to be 17% and the Z score is reported as -1.96.
Turning to `CN1CCC2(CCCN2Cc2nc(-c3ccccc3)cs2)CC1`, the “% Inhibition” value was found to be 6% and the Z score is given as -1.01.
The matching figures for `Cc1cc(CS(=O)(=O)Cc2ccccc2)no1`: -10% and 0.96.
On to `CCn1ncc2ncn(Cc3ccon3)c(=O)c21`, for which the “% Inhibition” value is on record as -15% and the Z score amounted to 2.57.
The corresponding values for `CCc1noc(CN(C2CC2)[C@H]2CCc3ccccc32)n1` are -6% and 0.52.
The corresponding values for `CN(C)S(=O)(=O)c1ccc2c(c1)nc(C(F)(F)F)n2CCC(=O)Nc1ccccc1Cl` are -8% and 0.83.
Consider `CC1=C(C(=O)Nc2ccccc2C)C2(CCCC2)[C@@H](C(N)=O)C(=O)N1`, for which the “% Inhibition” value is recorded as -3% and the Z score stood at 0.61.
The matching figures for `Cc1cccc(N(C)CCN2CCOCC2)n1`: -16% and 2.2.
Regarding `CN1CCCC(CN)C1c1cccc(Cl)c1` (centres undefined), the “% Inhibition” value is listed as -5% and the Z score is given as 0.6.
The corresponding values for `Cc1cccc(CNC(=O)[C@H]2CCCN(C3CCN(Cc4ccncc4)CC3)C2)c1` are -4% and 0.78.
Take `c1ccn2ncc(-c3nc([C@H]4CCOC4)no3)c2c1`: the “% Inhibition” value is listed as -9% and the Z score stood at 1.68.
The matching figures for `C=CCN1CCC(Nc2cnc3ccccc3n2)CC1`: 5% and -1.06.
For the compound `Cc1ccc(O)c(C(=O)NC2=CCC(=O)N2)c1`, the “% Inhibition” value is given as -11% and the Z score was 1.73.
The corresponding values for `CC1CC(=O)N(CC(O)COc2cccc3[nH]ccc23)C1=O` (centres undefined) are -4% and 0.74.
The corresponding values for `COc1ccccc1CC(=O)NCc1nc(N(C)C)nc(N(C)C)n1` are 7% and -1.
`Cc1ccc(CNC(=O)N2CCc3c(c(-c4nncn4-c4ccccc4)nn3C)C2)cc1`: the “% Inhibition” value is on record as 7% and the Z score is on record as -0.9.
The corresponding values for `CN(CCc1ccccn1)Cc1csnn1` are -2% and 0.34.
The corresponding values for `CCOc1cc2cc(c1)C(=O)N(C)CC(=O)N[C@@H]1CN(C(=O)CCOc3ccccc3)CC[C@@H]1OCc1cccc(c1)O2` are 5% and -0.7.
The matching figures for `CCC(C)(C)NS(=O)(=O)c1cc2[nH]c3c(c2cc1C)C(=O)CC(C)(C)C3`: -11% and 2.19.
Turning to `COc1ccc(CC(=O)N2CCCN(c3nc(Cc4ccc(C)cc4)nc4c3cnn4-c3ccccc3)CC2)cc1`, the “% Inhibition” value is listed as -2% and the Z score is listed as 0.26.
Regarding `C[C@]1(c2noc(C3CC3)n2)CCCN(C(=O)C2CCCCC2)C1`, the “% Inhibition” value is listed as -6% and the Z score came out at 0.89.
Regarding `O=C(c1ccc2ncccc2c1)N1CC[C@@H]2CN(Cc3cccnc3)[C@@H]2C1`, the “% Inhibition” value was -20% and the Z score is reported as 2.65.
The matching figures for `O=S(=O)(NCCC1CC2CCC1O2)c1c[nH]c2ccccc12` (centres undefined): -2% and 0.38.
The matching figures for `NC(=O)c1cccc(CN2CCC3(CC2)C[C@@H]3c2nc(-c3cccc(Cl)c3)no2)c1`: -5% and 0.94.
With `CNC(=O)C1CCN(c2nc3ncn(CC(=O)Nc4ccc(F)cc4)c(=O)c3s2)CC1`, the “% Inhibition” value was -24% and the Z score was determined as 2.12.
The matching figures for `Cc1cccc(OCC(=O)N2C[C@@H](C)[C@@](C)(O)C2)c1`: -11% and 1.91.
Consider `CC(=O)N1CCCN([C@@H](C)c2nnc(-c3cccs3)o2)CC1`, for which the “% Inhibition” value is listed as 0% and the Z score amounted to 0.03.
Turning to `O=C(NC1CC1c1ccc(F)cc1)c1cc(C2CC2)[nH]n1` (centres undefined), the “% Inhibition” value is on record as 4% and the Z score was -0.47.
The corresponding values for `Cc1ccc(C)c(C(=O)N(C)CC(=O)NC(C)C)c1` are -9% and 1.04.
The corresponding values for `CCn1ccc(C(=O)Nc2sc3c(c2C#N)CCC3)n1` are -22% and 2.77.
The matching figures for `Cc1nc(CCN(C)Cc2cccnc2N)no1`: -13% and 2.53.
Turning to `CCc1nc(-c2csc(S(=O)(=O)N3CCC4(CC3)OCCO4)c2)no1`, the “% Inhibition” value is recorded as 0% and the Z score was -0.05.
The corresponding values for `O[C@]1(CN2CCCC2)COCCN(c2ncnc3c2CCC3)C1` are -18% and 2.07.
The corresponding values for `Cc1ccc(NC(=O)c2cnn(-c3cccc(C)c3)c2C2CCN(C(=O)OC(C)(C)C)CC2)cc1` are -5% and 0.71.
